The target of the experiment is T1, GST-GCK WT (human, UniProt P35557 1-465).
T1 sequence (looked up): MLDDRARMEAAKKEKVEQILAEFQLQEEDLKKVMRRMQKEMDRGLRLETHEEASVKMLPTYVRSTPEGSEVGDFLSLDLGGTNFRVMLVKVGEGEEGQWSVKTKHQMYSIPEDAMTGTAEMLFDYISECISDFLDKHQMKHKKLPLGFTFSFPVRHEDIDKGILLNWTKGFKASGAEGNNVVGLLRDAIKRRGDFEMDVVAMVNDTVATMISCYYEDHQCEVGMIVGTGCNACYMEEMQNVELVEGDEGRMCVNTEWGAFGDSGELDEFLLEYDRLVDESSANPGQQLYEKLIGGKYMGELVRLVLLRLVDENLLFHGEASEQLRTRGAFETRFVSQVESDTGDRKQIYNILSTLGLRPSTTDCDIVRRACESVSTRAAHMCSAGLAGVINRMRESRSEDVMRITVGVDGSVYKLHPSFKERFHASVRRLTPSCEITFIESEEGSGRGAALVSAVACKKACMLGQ
The experiment is described as follows: pull-down.

B1: His-TAZ S89D phosphorylation-mimicking mutant (natural protein)
chain: not shown
For B1, the binding result is “binds”.

Values taken from publication PMC12322040 (Nature Communications, 2025).
